Data published in publication PMC9911399, “Two distinct binding modes provide the RNA-binding protein RbFox with extraordinary sequence specificity”.
Changes are numbered by the printed parent chain; changes in the protein carry UniProt numbers. This is one part of the list.

B1: GGCACCU (DNA:RNA)
RNA: GGGAGACCGGAAUUCAGAUUGUCCGGCACCUUUAAAUCCCGUCGUAGCCACCA
DNA 1: CAATCTGAATTCCGGTCTCCC
DNA 2: TGGTGGCTACGACGGGATT
B2: UUCCCAC (DNA:RNA)
RNA: B1 RNA with G25U, G26U, A28C, C30A, U31C
DNA 1: CAATCTGAATTCCGGTCTCCC
DNA 2: TGGTGGCTACGACGGGATT
B3: UAGUUAG (DNA:RNA)
RNA: GGGAGACCGGAAUUCAGAUUGUCCUAGUUAGUUAAAUCCCGUCGUAGCCACCA
DNA 1: CAATCTGAATTCCGGTCTCCC
DNA 2: TGGTGGCTACGACGGGATT
B4: CAAUAUC (DNA:RNA)
RNA: B3 RNA with U25C, G27A, U29A, A30U, G31C
DNA 1: CAATCTGAATTCCGGTCTCCC
DNA 2: TGGTGGCTACGACGGGATT
B5: GCCCCUA (DNA:RNA)
RNA: B1 RNA with G26C, A28C, C30U, U31A
DNA 1: CAATCTGAATTCCGGTCTCCC
DNA 2: TGGTGGCTACGACGGGATT
B6: CGCGCAA (DNA:RNA)
RNA: B1 RNA with G25C, A28G, C30A, U31A
DNA 1: CAATCTGAATTCCGGTCTCCC
DNA 2: TGGTGGCTACGACGGGATT
B7: GACUCUG (DNA:RNA)
RNA: B1 RNA with G26A, A28U, C30U, U31G
DNA 1: CAATCTGAATTCCGGTCTCCC
DNA 2: TGGTGGCTACGACGGGATT
B8: GGGUAGC (DNA:RNA)
RNA: B1 RNA with C27G, A28U, C29A, C30G, U31C
DNA 1: CAATCTGAATTCCGGTCTCCC
DNA 2: TGGTGGCTACGACGGGATT
B9: AUAAAGA (DNA:RNA)
RNA: B1 RNA with G25A, G26U, C27A, C29A, C30G, U31A
DNA 1: CAATCTGAATTCCGGTCTCCC
DNA 2: TGGTGGCTACGACGGGATT
B10: GAGAUCA (DNA:RNA)
RNA: B1 RNA with G26A, C27G, C29U, U31A
DNA 1: CAATCTGAATTCCGGTCTCCC
DNA 2: TGGTGGCTACGACGGGATT
B11: UGCACAC (DNA:RNA)
RNA: B1 RNA with G25U, C30A, U31C
DNA 1: CAATCTGAATTCCGGTCTCCC
DNA 2: TGGTGGCTACGACGGGATT
B12: UGUAUGG (DNA:RNA)
RNA: B3 RNA with A26G, G27U, U28A, A30G
DNA 1: CAATCTGAATTCCGGTCTCCC
DNA 2: TGGTGGCTACGACGGGATT
B13: UGGAAGU (DNA:RNA)
RNA: B1 RNA with G25U, C27G, C29A, C30G
DNA 1: CAATCTGAATTCCGGTCTCCC
DNA 2: TGGTGGCTACGACGGGATT
B14: CUCCUUU (DNA:RNA)
RNA: B1 RNA with G25C, G26U, A28C, C29U, C30U
DNA 1: CAATCTGAATTCCGGTCTCCC
DNA 2: TGGTGGCTACGACGGGATT
B15: AGGGCUC (DNA:RNA)
RNA: B1 RNA with G25A, C27G, A28G, C30U, U31C
DNA 1: CAATCTGAATTCCGGTCTCCC
DNA 2: TGGTGGCTACGACGGGATT
B16: CCGGAAU (DNA:RNA)
RNA: B3 RNA with U25C, A26C, U28G, U29A, G31U
DNA 1: CAATCTGAATTCCGGTCTCCC
DNA 2: TGGTGGCTACGACGGGATT
B17: AGUUUAA (DNA:RNA)
RNA: B3 RNA with U25A, A26G, G27U, G31A
DNA 1: CAATCTGAATTCCGGTCTCCC
DNA 2: TGGTGGCTACGACGGGATT
B18: GAUCGAG (DNA:RNA)
RNA: B3 RNA with U25G, G27U, U28C, U29G
DNA 1: CAATCTGAATTCCGGTCTCCC
DNA 2: TGGTGGCTACGACGGGATT
B19: CGUCGUG (DNA:RNA)
RNA: B1 RNA with G25C, C27U, A28C, C29G, C30U, U31G
DNA 1: CAATCTGAATTCCGGTCTCCC
DNA 2: TGGTGGCTACGACGGGATT
B20: AACGAGG (DNA:RNA)
RNA: B3 RNA with U25A, G27C, U28G, U29A, A30G
DNA 1: CAATCTGAATTCCGGTCTCCC
DNA 2: TGGTGGCTACGACGGGATT
B21: CUAAGGG (DNA:RNA)
RNA: B1 RNA with G25C, G26U, C27A, C29G, C30G, U31G
DNA 1: CAATCTGAATTCCGGTCTCCC
DNA 2: TGGTGGCTACGACGGGATT
B22: GAAUCUA (DNA:RNA)
RNA: B1 RNA with G26A, C27A, A28U, C30U, U31A
DNA 1: CAATCTGAATTCCGGTCTCCC
DNA 2: TGGTGGCTACGACGGGATT
B23: AAAGUAA (DNA:RNA)
RNA: B3 RNA with U25A, G27A, U28G, G31A
DNA 1: CAATCTGAATTCCGGTCTCCC
DNA 2: TGGTGGCTACGACGGGATT
B24: UUUUUCA (DNA:RNA)
RNA: B3 RNA with A26U, G27U, A30C, G31A
DNA 1: CAATCTGAATTCCGGTCTCCC
DNA 2: TGGTGGCTACGACGGGATT
B25: AAAUUUA (DNA:RNA)
RNA: B3 RNA with U25A, G27A, A30U, G31A
DNA 1: CAATCTGAATTCCGGTCTCCC
DNA 2: TGGTGGCTACGACGGGATT
B26: GUAAUAG (DNA:RNA)
RNA: B3 RNA with U25G, A26U, G27A, U28A
DNA 1: CAATCTGAATTCCGGTCTCCC
DNA 2: TGGTGGCTACGACGGGATT
B27: CUCGACU (DNA:RNA)
RNA: B1 RNA with G25C, G26U, A28G, C29A
DNA 1: CAATCTGAATTCCGGTCTCCC
DNA 2: TGGTGGCTACGACGGGATT
B28: UGGAAGG (DNA:RNA)
RNA: B3 RNA with A26G, U28A, U29A, A30G
DNA 1: CAATCTGAATTCCGGTCTCCC
DNA 2: TGGTGGCTACGACGGGATT
B29: GUAAGAC (DNA:RNA)
RNA: B1 RNA with G26U, C27A, C29G, C30A, U31C
DNA 1: CAATCTGAATTCCGGTCTCCC
DNA 2: TGGTGGCTACGACGGGATT
B30: GCCAAAA (DNA:RNA)
RNA: B1 RNA with G26C, C29A, C30A, U31A
DNA 1: CAATCTGAATTCCGGTCTCCC
DNA 2: TGGTGGCTACGACGGGATT
B31: UGGCUAA (DNA:RNA)
RNA: B3 RNA with A26G, U28C, G31A
DNA 1: CAATCTGAATTCCGGTCTCCC
DNA 2: TGGTGGCTACGACGGGATT

What follows are binders tested against T1, RBFOX1 RRM RbFoxmut (Fox-RRM*) (Homo sapiens, UniProt Q9NWB1 109-208, R118D;E147R;N151S;E152T) (assay: EMSA; HiTS-Eq, 1 nM pool, 10 min; buffer printed only for the single-RNA assays: 10 mM Tris pH 7.5, 150 mM NaCl, 3.4 mM EDTA, 0.001% NP-40, 30 C). Settings: tags: His6 N-terminal (pET28a); label: 5' 32P.
T1 sequence: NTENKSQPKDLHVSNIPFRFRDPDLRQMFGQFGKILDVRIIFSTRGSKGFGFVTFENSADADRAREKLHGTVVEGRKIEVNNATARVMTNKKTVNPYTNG
Procedure, shortened: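 A pool of RNA with 7 randomized nucleotides, 5′-radiolabelled and with DNA-annealed flanks, was equilibrated at 1 nM for 10 min in 50 µL with purified RbFox RRM, wild type or mutant, across increasing protein concentrations. Free RNA was separated by 8% native PAGE, excised, reverse-transcribed, barcoded by PCR and sequenced. Relative association constants were obtained from read-count changes of each RNA species versus the control reaction and normalised to the cognate motif.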

First: B1
Second: B2
The binding signal of the first is higher: 0.109 KA relative to UGCAUGU for the first, 0.0831 KA relative to UGCAUGU for the second.

First: B3
Second: B4
The binding signal of the first is higher: 0.106 KA relative to UGCAUGU for the first, 0.0715 KA relative to UGCAUGU for the second.

First: B5
Second: B6
The binding signal of the first is higher: 0.0682 KA relative to UGCAUGU for the first, 0.0625 KA relative to UGCAUGU for the second.

First: B7
Second: B8
The binding signal of the first is lower: 0.0709 KA relative to UGCAUGU for the first, 0.128 KA relative to UGCAUGU for the second.

Compared with B9, B10 is lower in binding signal: 0.112 KA relative to UGCAUGU for the first, 0.111 KA relative to UGCAUGU for the second.

First: B11
Second: B12
The binding signal of the first is lower: 0.0662 KA relative to UGCAUGU for the first, 0.394 KA relative to UGCAUGU for the second.

First: B13
Second: B14
The binding signal of the first is higher: 0.13 KA relative to UGCAUGU for the first, 0.0833 KA relative to UGCAUGU for the second.

First: B15
Second: B16
The binding signal of the first is lower: 0.0916 KA relative to UGCAUGU for the first, 0.108 KA relative to UGCAUGU for the second.

First: B17
Second: B18
The binding signal of the first is lower: 0.112 KA relative to UGCAUGU for the first, 0.146 KA relative to UGCAUGU for the second.

First: B19
Second: B20
The binding signal of the first is higher: 0.156 KA relative to UGCAUGU for the first, 0.0903 KA relative to UGCAUGU for the second.

First: B21
Second: B22
The binding signal of the first is lower: 0.0601 KA relative to UGCAUGU for the first, 0.219 KA relative to UGCAUGU for the second.

First: B23
Second: B24
The binding signal of the first is higher: 0.131 KA relative to UGCAUGU for the first, 0.107 KA relative to UGCAUGU for the second.

Compared with B25, B26 is higher in binding signal: 0.0884 KA relative to UGCAUGU for the first, 0.111 KA relative to UGCAUGU for the second.

Compared with B27, B28 is lower in binding signal: 0.0771 KA relative to UGCAUGU for the first, 0.0661 KA relative to UGCAUGU for the second.

First: B29
Second: B30
The binding signal of the first is lower: 0.0547 KA relative to UGCAUGU for the first, 0.0824 KA relative to UGCAUGU for the second.

In the case of B31, the binding signal is reported as 0.131 KA relative to UGCAUGU.
